Measurements: the supplement of paper PMC12217912
Some of the results follow. The full chains were built here from the parent and the listed change. Values near 0.05 are background.

B1: TEV protease; numbered along this chain (parent)
chain: MGESLFKGPRDYNPISSSICHLTNESDGHTTSLYGIGFGPFIITNKHLFRRNNGTLVVQSLHGVFKVKDTTTLQQHLVDGRDMIIIRMPKDFPPFPQKLKFREPQREERICLVTTNFQTKSMSSMVSDTSCTFPSGDGIFWKHWIQTKDGQCGSPLVSTRDGFIVGIHSASNFTNTNNYFTSVPKNFMELLTNQEAQQWVSGWRLNADSVLWGGHKVFMVKPEEPFQPVKEATQL

Variants of: B1
Test: raw area under fraction-flipped curve 0-4 h after induction (AUC4h, not background-subtracted), DNA-recorder readout of cleavage of the substrate (dimensionless); higher = more cleavage of the substrate by the protease variant
Conditions: temperature: 34 °C; time window: 0-4 h after rhamnose induction
Procedure: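 In vivo DNA recorder in E. coli TOP10(DE3) ΔrhaA at 34 °C. Each TEVp single-site mutant (parent TEVp 0) is paired with a single-site variant of the 7-mer TEVs (canonical ENLYFQ|S). The substrate sits between flexible linkers in a Bxb1-sfGFP-TEVs-SsrA fusion, so cleavage stabilises Bxb1 and speeds flipping of a recombination array, read by NGS. The value is the raw area under the fraction-flipped curve over 0-4 h after rhamnose induction (AUC4h), with ≥20 reads per time point. It is not background-subtracted; inactive controls average about 0.047.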
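Note: Bxb1 expression induced with 0.2% (w/v) L-rhamnose at OD600 near 0.5, cultures sampled hourly, flipped fraction per protease–substrate barcode pair counted by paired-end Illumina sequencing.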

Variant | area with substrate ENLYFQA | area with substrate ENLYFQD | area with substrate ENLYFQF | area with substrate ENLYFQG | area with substrate ENLYFQI | area with substrate ENLYFQK | area with substrate ENLYFQL | area with substrate ENLYFQM | area with substrate ENLYFQN | area with substrate ENLYFQP | area with substrate ENLYFQR | area with substrate ENLYFQS | area with substrate ENLYFQW | area with substrate ENLYFQY | area with substrate ENLYFQT | area with substrate ENLYFQC | area with substrate ENLYFQH | area with substrate ENLYFQE | area with substrate ENLYFQV | area with substrate ENLYFQQ
MFESLFKGPRDYNPISSSICHLTNESDGHTTSLYGIGFGPFIITNKHLFRRNNGTLVVQSLHGVFKVKDTTTLQQHLVDGRDMIIIRMPKDFPPFPQKLKFREPQREERICLVTTNFQTKSMSSMVSDTSCTFPSGDGIFWKHWIQTKDGQCGSPLVSTRDGFIVGIHSASNFTNTNNYFTSVPKNFMELLTNQEAQQWVSGWRLNADSVLWGGHKVFMVKPEEPFQPVKEATQL [G2F] | 0.165 | 0.0807 | 0.0796 | 0.153 | 0.0576 | 0.0698 | 0.0674 | 0.107 | 0.101 | 0.0534 | 0.0614 | 0.143 | 0.0685 | 0.0855 |  |  |  |  |  | 
MHESLFKGPRDYNPISSSICHLTNESDGHTTSLYGIGFGPFIITNKHLFRRNNGTLVVQSLHGVFKVKDTTTLQQHLVDGRDMIIIRMPKDFPPFPQKLKFREPQREERICLVTTNFQTKSMSSMVSDTSCTFPSGDGIFWKHWIQTKDGQCGSPLVSTRDGFIVGIHSASNFTNTNNYFTSVPKNFMELLTNQEAQQWVSGWRLNADSVLWGGHKVFMVKPEEPFQPVKEATQL [G2H] | 0.134 |  |  | 0.112 |  | 0.0715 | 0.0648 | 0.147 | 0.103 |  | 0.0422 | 0.138 |  |  | 0.0831 |  |  |  |  | 
MTESLFKGPRDYNPISSSICHLTNESDGHTTSLYGIGFGPFIITNKHLFRRNNGTLVVQSLHGVFKVKDTTTLQQHLVDGRDMIIIRMPKDFPPFPQKLKFREPQREERICLVTTNFQTKSMSSMVSDTSCTFPSGDGIFWKHWIQTKDGQCGSPLVSTRDGFIVGIHSASNFTNTNNYFTSVPKNFMELLTNQEAQQWVSGWRLNADSVLWGGHKVFMVKPEEPFQPVKEATQL [G2T] | 0.118 |  | 0.0617 |  |  | 0.068 |  |  |  |  |  | 0.129 |  |  |  |  |  |  |  | 
MGWSLFKGPRDYNPISSSICHLTNESDGHTTSLYGIGFGPFIITNKHLFRRNNGTLVVQSLHGVFKVKDTTTLQQHLVDGRDMIIIRMPKDFPPFPQKLKFREPQREERICLVTTNFQTKSMSSMVSDTSCTFPSGDGIFWKHWIQTKDGQCGSPLVSTRDGFIVGIHSASNFTNTNNYFTSVPKNFMELLTNQEAQQWVSGWRLNADSVLWGGHKVFMVKPEEPFQPVKEATQL [E3W] | 0.0919 | 0.0683 | 0.103 | 0.124 | 0.0528 | 0.0645 | 0.0698 | 0.105 | 0.0822 |  |  | 0.108 | 0.0665 | 0.0709 | 0.0674 | 0.115 | 0.0841 |  |  | 
MGEALFKGPRDYNPISSSICHLTNESDGHTTSLYGIGFGPFIITNKHLFRRNNGTLVVQSLHGVFKVKDTTTLQQHLVDGRDMIIIRMPKDFPPFPQKLKFREPQREERICLVTTNFQTKSMSSMVSDTSCTFPSGDGIFWKHWIQTKDGQCGSPLVSTRDGFIVGIHSASNFTNTNNYFTSVPKNFMELLTNQEAQQWVSGWRLNADSVLWGGHKVFMVKPEEPFQPVKEATQL [S4A] | 0.0996 |  |  | 0.102 | 0.0562 | 0.0642 | 0.0704 |  |  |  | 0.0566 | 0.112 |  |  | 0.0662 | 0.138 |  |  |  | 
MGESHFKGPRDYNPISSSICHLTNESDGHTTSLYGIGFGPFIITNKHLFRRNNGTLVVQSLHGVFKVKDTTTLQQHLVDGRDMIIIRMPKDFPPFPQKLKFREPQREERICLVTTNFQTKSMSSMVSDTSCTFPSGDGIFWKHWIQTKDGQCGSPLVSTRDGFIVGIHSASNFTNTNNYFTSVPKNFMELLTNQEAQQWVSGWRLNADSVLWGGHKVFMVKPEEPFQPVKEATQL [L5H] | 0.0928 |  |  | 0.0953 | 0.0618 |  | 0.066 | 0.0924 |  |  |  | 0.114 |  |  | 0.0581 |  | 0.087 | 0.0993 |  | 
MGESLTKGPRDYNPISSSICHLTNESDGHTTSLYGIGFGPFIITNKHLFRRNNGTLVVQSLHGVFKVKDTTTLQQHLVDGRDMIIIRMPKDFPPFPQKLKFREPQREERICLVTTNFQTKSMSSMVSDTSCTFPSGDGIFWKHWIQTKDGQCGSPLVSTRDGFIVGIHSASNFTNTNNYFTSVPKNFMELLTNQEAQQWVSGWRLNADSVLWGGHKVFMVKPEEPFQPVKEATQL [F6T] | 0.112 |  |  | 0.0838 |  |  |  | 0.0699 | 0.0608 |  |  | 0.108 | 0.0617 | 0.0896 |  |  |  |  |  | 
MGESLFYGPRDYNPISSSICHLTNESDGHTTSLYGIGFGPFIITNKHLFRRNNGTLVVQSLHGVFKVKDTTTLQQHLVDGRDMIIIRMPKDFPPFPQKLKFREPQREERICLVTTNFQTKSMSSMVSDTSCTFPSGDGIFWKHWIQTKDGQCGSPLVSTRDGFIVGIHSASNFTNTNNYFTSVPKNFMELLTNQEAQQWVSGWRLNADSVLWGGHKVFMVKPEEPFQPVKEATQL [K7Y] | 0.126 |  |  |  |  |  | 0.0134 |  | 0.0621 | 0.0402 | 0.0681 | 0.105 | 0.0695 | 0.0905 |  | 0.165 |  |  |  | 
MGESLFKGPRDYNPGSSSICHLTNESDGHTTSLYGIGFGPFIITNKHLFRRNNGTLVVQSLHGVFKVKDTTTLQQHLVDGRDMIIIRMPKDFPPFPQKLKFREPQREERICLVTTNFQTKSMSSMVSDTSCTFPSGDGIFWKHWIQTKDGQCGSPLVSTRDGFIVGIHSASNFTNTNNYFTSVPKNFMELLTNQEAQQWVSGWRLNADSVLWGGHKVFMVKPEEPFQPVKEATQL [I15G] | 0.0734 | 0.0735 |  | 0.156 | 0.0588 |  | 0.0553 | 0.061 |  | 0.0379 | 0.0691 | 0.0716 | 0.0525 | 0.0407 | 0.0547 | 0.0866 | 0.0562 |  | 0.0649 | 
MGESLFKGPRDYNPISSSICHMTNESDGHTTSLYGIGFGPFIITNKHLFRRNNGTLVVQSLHGVFKVKDTTTLQQHLVDGRDMIIIRMPKDFPPFPQKLKFREPQREERICLVTTNFQTKSMSSMVSDTSCTFPSGDGIFWKHWIQTKDGQCGSPLVSTRDGFIVGIHSASNFTNTNNYFTSVPKNFMELLTNQEAQQWVSGWRLNADSVLWGGHKVFMVKPEEPFQPVKEATQL [L22M] | 0.073 | 0.0751 | 0.0805 | 0.109 |  | 0.0532 | 0.0546 | 0.0711 |  | 0.055 | 0.0756 | 0.0988 | 0.0604 | 0.0662 | 0.0568 | 0.139 | 0.0746 |  | 0.0473 | 0.0699
